The record followed here is article PMC3077382, “14-3-3 Proteins Regulate Exonuclease 1–Dependent Processing of Stalled Replication Forks” (PLoS Genetics, 2011).

Protein sequences, listed by entry. Tags and fused reporters are not part of them. Lines headed by an entry give the natural chain unless they say otherwise; changes in a name come on top. Chains listed by the source or under a name are the forms on record and can include a tag or linker.
UniProt P29311: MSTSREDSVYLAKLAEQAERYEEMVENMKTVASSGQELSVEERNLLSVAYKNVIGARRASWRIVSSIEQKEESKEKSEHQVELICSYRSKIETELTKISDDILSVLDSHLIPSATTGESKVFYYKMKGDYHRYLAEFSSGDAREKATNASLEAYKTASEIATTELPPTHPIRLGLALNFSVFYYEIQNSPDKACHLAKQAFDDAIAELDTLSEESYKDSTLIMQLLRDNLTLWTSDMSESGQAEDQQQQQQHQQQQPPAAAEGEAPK
Bmh1-280-HA (P29311, form named): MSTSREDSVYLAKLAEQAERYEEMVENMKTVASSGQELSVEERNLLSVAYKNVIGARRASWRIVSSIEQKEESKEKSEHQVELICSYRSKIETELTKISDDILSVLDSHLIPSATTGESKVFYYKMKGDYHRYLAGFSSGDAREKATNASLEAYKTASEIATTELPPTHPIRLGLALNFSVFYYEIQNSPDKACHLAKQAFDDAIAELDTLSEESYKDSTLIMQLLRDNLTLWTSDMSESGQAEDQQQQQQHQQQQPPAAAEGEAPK
UniProt P34730: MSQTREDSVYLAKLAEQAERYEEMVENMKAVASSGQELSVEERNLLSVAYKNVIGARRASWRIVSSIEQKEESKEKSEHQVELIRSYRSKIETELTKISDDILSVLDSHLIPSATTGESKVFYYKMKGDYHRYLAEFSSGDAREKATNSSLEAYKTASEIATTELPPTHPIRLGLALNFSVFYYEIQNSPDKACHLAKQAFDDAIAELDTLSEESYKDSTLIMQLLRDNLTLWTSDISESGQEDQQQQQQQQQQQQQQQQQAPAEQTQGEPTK

Assay [1] concerns the target Bmh1-280-HA (S. cerevisiae) (UniProt P29311). Description: co-IP; yeast cultures not treated with HU; 10 mg whole cell extract immunoprecipitated with monoclonal HA antibody; Exo1-Myc detected by blot.
Assay [2] addresses Bmh1-HA (S. cerevisiae) (UniProt P29311). The assay is described as above.
In assay [3] the target is Bmh2-HA (S. cerevisiae) (UniProt P34730). The description is as above.
In assay [4] the target is Bmh1-280-HA (S. cerevisiae) (UniProt P29311). The assay can be described thus: co-IP; yeast cultures treated for 90 min with 150 mM HU; 10 mg whole cell extract immunoprecipitated with monoclonal HA antibody; Exo1-Myc detected by blot.
The target in assay [5] is Bmh1-HA (S. cerevisiae) (UniProt P29311). The assay is described as above.
Assay [6] deals with Bmh2-HA (S. cerevisiae) (UniProt P34730). Described as above.

These are yes or no findings as the source states them, for the method shown. Binding seen in cells or lysates may run through a third protein. Some entries that bind do so weakly or less than the wild type. Sequences can lack the tags named with a protein.

B1: Exo1-Myc (protein, UniProt P39875 1-702)
chain: MGIQGLLPQLKPIQNPVSLRRYEGEVLAIDGYAWLHRAACSCAYELAMGKPTDKYLQFFIKRFSLLKTFKVEPYLVFDGDAIPVKKSTESKRRDKRKENKAIAERLWACGEKKNAMDYFQKCVDITPEMAKCIICYCKLNGIRYIVAPFEADSQMVYLEQKNIVQGIISEDSDLLVFGCRRLITKLNDYGECLEICRDNFIKLPKKFPLGSLTNEEIITMVCLSGCDYTNGIPKVGLITAMKLVRRFNTIERIILSIQREGKLMIPDTYINEYEAAVLAFQFQRVFCPIRKKIVSLNEIPLYLKDTESKRKRLYACIGFVIHRETQKKQIVHFDDDIDHHLHLKIAQGDLNPYDFHQPLANREHKLQLASKSNIEFGKTNTTNSEAKVKPIESFFQKMTKLDHNPKVANNIHSLRQAEDKLTMAIKRRKLSNANVVQETLKDTRSKFFNKPSMTVVENFKEKGDSIQDFKEDTNSQSLEEPVSESQLSTQIPSSFITTNLEDDDNLSEEVSEVVSDIEEDRKNSEGKTIGNEIYNTDDDGDGDTSEDYSETAESRVPTSSTTSFPGSSQRSISGCTKVLQKFRYSSSFSGVNANRQPLFPRHVNQKSRGMVYVNQNRDDDCDDNDGKNQITQRPSLRKSLIGARSQRIVIDMKSVDERKSFNSSPILHEESKKRDIETTKSSQARPAVRSISLLSQFVYKGK
Take B1: the binding entry in assay [1] is reported as “no binding”; in assay [2], “no binding (condition: cells not treated with HU)”; in assay [3], “no binding (condition: cells not treated with HU)”; in assay [4], “no binding”; in assay [5] it was “binds”; in assay [6] it was “binds”.
